Experimental data reported in the supplement of paper PMC8728848.
The list shows a part of the results.

Assays:
Assay in all cases: glycan array binding signal (z-score within array); higher = stronger binding
Conditions in all cases: glycan notation: IUPAC condensed, linker removed
[1] = molecular target: Fuc(a1-2)[Gal(a1-3)]Gal(b1-4)[Fuc(a1-3)]Glc
In short: (§1)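 The binding signal is a Z-score computed within each array and averaged over linkers. Arrays of the same protein sequence at different concentrations or buffers were also averaged together. Data originate from 3228 arrays in the Consortium for Functional Glycomics database, kept only where the protein sequence was available.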

[2] = molecular target: Fuc(a1-2)[Gal(a1-3)]Gal(b1-4)[Fuc(a1-3)]GlcNAc
In short: as §1

[3] = molecular target: Fuc(a1-2)[Gal(a1-3)]Gal(b1-4)[Fuc(a1-3)]GlcNAc(b1-3)GalNAc
In short: as §1

[4] = molecular target: Fuc(a1-2)[Gal(a1-4)]Gal(b1-4)GlcNAc
In short: as §1

[5] = molecular target: Fuc(a1-2)[GalNAc(a1-3)]Gal
In short: as §1

[6] = molecular target: Fuc(a1-2)[GalNAc(a1-3)]Gal(b1-3)GalNAc(a1-3)[Fuc(a1-2)]Gal(b1-4)GlcNAc
In short: as §1

[7] = molecular target: Fuc(a1-2)[GalNAc(a1-3)]Gal(b1-3)GlcNAc
In short: as §1

[8] = molecular target: Fuc(a1-2)[GalNAc(a1-3)]Gal(b1-3)GlcNAc(b1-2)Man(a1-3)[Fuc(a1-2)[GalNAc(a1-3)]Gal(b1-3)GlcNAc(b1-2)Man(a1-6)]Man(b1-4)GlcNAc(b1-4)GlcNAc
In short: as §1

[9] = molecular target: Fuc(a1-2)[GalNAc(a1-3)]Gal(b1-3)GlcNAc(b1-2)Man(a1-3)[Fuc(a1-2)[GalNAc(a1-3)]Gal(b1-3)GlcNAc(b1-2)Man(a1-6)]Man(b1-4)GlcNAc(b1-4)[Fuc(a1-6)]GlcNAc
In short: as §1

[10] = molecular target: Fuc(a1-2)[GalNAc(a1-3)]Gal(b1-3)GlcNAc(b1-3)GalNAc
In short: as §1

[11] = molecular target: Fuc(a1-2)[GalNAc(a1-3)]Gal(b1-3)GlcNAc(b1-6)GalNAc
In short: as §1

[12] = molecular target: Fuc(a1-2)[GalNAc(a1-3)]Gal(b1-4)Glc
In short: as §1

[13] = molecular target: Fuc(a1-2)[GalNAc(a1-3)]Gal(b1-4)GlcNAc
In short: as §1

[14] = molecular target: Fuc(a1-2)[GalNAc(a1-3)]Gal(b1-4)GlcNAc(b1-2)Man(a1-3)[Fuc(a1-2)[GalNAc(a1-3)]Gal(b1-4)GlcNAc(b1-2)Man(a1-6)]Man(b1-4)GlcNAc(b1-4)GlcNAc
In short: as §1

[15] = molecular target: Fuc(a1-2)[GalNAc(a1-3)]Gal(b1-4)GlcNAc(b1-2)Man(a1-3)[Fuc(a1-2)[GalNAc(a1-3)]Gal(b1-4)GlcNAc(b1-2)Man(a1-6)]Man(b1-4)GlcNAc(b1-4)[Fuc(a1-6)]GlcNAc
In short: as §1

[16] = molecular target: Fuc(a1-2)[GalNAc(a1-3)]Gal(b1-4)GlcNAc(b1-3)Gal(b1-4)GlcNAc
In short: as §1

[17] = molecular target: Fuc(a1-2)[GalNAc(a1-3)]Gal(b1-4)GlcNAc(b1-3)Gal(b1-4)GlcNAc(b1-3)Gal(b1-4)GlcNAc
In short: as §1

[18] = molecular target: Fuc(a1-2)[GalNAc(a1-3)]Gal(b1-4)GlcNAc(b1-3)GalNAc
In short: as §1

[19] = molecular target: Fuc(a1-2)[GalNAc(a1-3)]Gal(b1-4)[Fuc(a1-3)]GlcNAc
In short: as §1

[20] = molecular target: Fuc(a1-2)[GalNAc(a1-3)]Gal(b1-4)[Fuc(a1-3)]GlcNAc(b1-3)GalNAc
In short: as §1

[21] = molecular target: Fuc(a1-2)[GalNAc(a1-4)]Gal(b1-4)GlcNAc
In short: as §1

[22] = molecular target: Fuc(a1-2)[GalNAc(b1-3)]Gal
In short: as §1

Fuc(a1-3)GlcNAc = molecular target: Fuc(a1-3)GlcNAc
In short: as §1

[23] = molecular target: Fuc(a1-3)[Gal(b1-4)]Glc6S
In short: as §1

[24] = molecular target: Fuc(a1-3)[Gal(b1-4)]GlcNAc
In short: as §1

[25] = molecular target: Fuc(a1-3)[Gal(b1-4)]GlcNAc(b1-2)Man
In short: as §1

[26] = molecular target: Fuc(a1-3)[Gal(b1-4)]GlcNAc(b1-2)Man(a1-3)[Fuc(a1-3)[Gal(b1-4)]GlcNAc(b1-2)Man(a1-6)]Man(b1-4)GlcNAc(b1-4)GlcNAc
In short: as §1

[27] = molecular target: Fuc(a1-3)[Gal(b1-4)]GlcNAc(b1-2)Man(a1-3)[Fuc(a1-3)[Gal(b1-4)]GlcNAc(b1-2)Man(a1-6)]Man(b1-4)GlcNAc(b1-4)[Fuc(a1-6)]GlcNAc
In short: as §1

[28] = molecular target: Fuc(a1-3)[Gal(b1-4)]GlcNAc(b1-3)Gal(b1-3)[Fuc(a1-4)]GlcNAc
In short: as §1

[29] = molecular target: Fuc(a1-3)[Gal(b1-4)]GlcNAc(b1-3)GalNAc
In short: as §1

B1: Morniga (Morus nigra) (protein)
chain: MAGTSTNTQTTGTSQTVEVGLWGGPGGNAWDDGSYTGIREINLSHGDAIGAFSVIYDLNGQPFTGPTHPGNEPSFKTVKITLDFPNEFLVSVSGYTGVLPRLATGKDVIRSLTFKTNKKTYGPYGKEEGTPFSLPIENGLIVGFKGRSGFVVDAIGVHLS
Q: How did the “glycan array binding signal (z-score)” value [1] turn out when B1 was run?
A: -0.338

Q: What about the “glycan array binding signal (z-score)” value [2] of the same binder?
A: -0.324

Q: And the “glycan array binding signal (z-score)” value [3]?
A: -0.329

Q: And the “glycan array binding signal (z-score)” value [4]?
A: -0.339

Q: What about the “glycan array binding signal (z-score)” value [5] of the same binder?
A: -0.334

Q: What about the “glycan array binding signal (z-score)” value [6] of the same binder?
A: -0.335

Q: And the “glycan array binding signal (z-score)” value [7]?
A: -0.333

Q: What about the “glycan array binding signal (z-score)” value [8] of the same binder?
A: -0.118

Q: And the “glycan array binding signal (z-score)” value [9]?
A: -0.241

Q: And the “glycan array binding signal (z-score)” value [10]?
A: -0.321

Q: What about the “glycan array binding signal (z-score)” value [11] of the same binder?
A: -0.331

Q: And the “glycan array binding signal (z-score)” value [12]?
A: -0.34

Q: What about the “glycan array binding signal (z-score)” value [13] of the same binder?
A: -0.338

Q: And the “glycan array binding signal (z-score)” value [14]?
A: 1.79

Q: What about the “glycan array binding signal (z-score)” value [15] of the same binder?
A: 0.138

Q: What about the “glycan array binding signal (z-score)” value [16] of the same binder?
A: -0.34

Q: And the “glycan array binding signal (z-score)” value [17]?
A: -0.329

Q: What about the “glycan array binding signal (z-score)” value [18] of the same binder?
A: -0.341

Q: And the “glycan array binding signal (z-score)” value [19]?
A: -0.334

Q: What about the “glycan array binding signal (z-score)” value [20] of the same binder?
A: -0.312

Q: And the “glycan array binding signal (z-score)” value [21]?
A: -0.34

Q: What about the “glycan array binding signal (z-score)” value [22] of the same binder?
A: -0.342

Q: What about the “glycan array binding signal (z-score)” value (Fuc(a1-3)GlcNAc) of the same binder?
A: -0.339

Q: And the “glycan array binding signal (z-score)” value [23]?
A: -0.332

Q: And the “glycan array binding signal (z-score)” value [24]?
A: -0.338

Q: What about the “glycan array binding signal (z-score)” value [25] of the same binder?
A: -0.317

Q: And the “glycan array binding signal (z-score)” value [26]?
A: 1.64

Q: And the “glycan array binding signal (z-score)” value [27]?
A: -0.304

Q: And the “glycan array binding signal (z-score)” value [28]?
A: -0.333

Q: And the “glycan array binding signal (z-score)” value [29]?
A: -0.305
